Hit rate of the full screen: of about 370,000 compounds, about 150 (0.041%) were called active. Inconclusive means that the source gave no clear call. Such entries were picked first, then a sample of the others. Calls follow the shape of the dose curve; as a rule, active = well fitted inhibition curve with a large enough effect; inconclusive = small, poorly fitted or top-dose-only effect; inactive = flat fitted curve, though single readings scatter. No potency is given beside an inconclusive call; the fits are too rough.
Target: Beta-lactamase (Escherichia coli (strain K12)) (UniProt P00811)
Assay: qHTS Inhibitors of AmpC Beta-Lactamase (assay with detergent); also: nearly all actives have a fitted effect of over 25% in size;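 as to activity change, negative = inhibition: 0% = no-compound wells and -100% = no-enzyme wells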
Conditions: AmpC hydrolysis of nitrocefin, absorbance 480 nm, 0.01% Triton; activity change, negative = inhibition: at 114 µM (top of the series)
Experimental: NIH Molecular Libraries Probe Production Network [MLPCN] NIH Chemical Genomics Center [NCGC] Assay Provider: Professor Brian Shoichet, UCSF Assay Overview: This aggregation profiling approach exploits the sensitivity of aggregate formation to detergent. Inhibition of b-lactamase is measured in the presence and absence of 0.01% Triton X-100. This particular assay had the prescence of 0.01% Triton X-100. See Pubchem assay "Promiscuous and Specific Inhibitors of AmpC Beta-Lactamase (assay without detergent)" for related screen. Compounds that inhibit only in the absence of detergent are considered likely promiscuous aggregators. A screen of 1,030 compounds was performed in Brian Shoichet's lab in 96-well format. AmpC activity was measured by following the absorbance at 480 nm. Nitrocefin is a chromogenic substrate: while nitrocefin is yellow (lmax 390 nm), the product of its hydrolysis is red (lmax 486 nm, 17,000 M-1). AmpC beta lactamase was provided by Shoichet Lab, UCSF.
Buffer: 20 mM phosphate buffer, pH 7.0 Triton X-100: No Detergent screen: 0.0001%, Detergent screen: 0.01%. Reagents/Controls: Buffer in columns 3 and 4 as negative control (no enzyme). 5.3 nM AmpC in columns 1, 2, 5-48. Titration of UCSF compound 9 control (from 10 mM, then 1:2) pin-transferred to column 2. Column 1 is neutral (100% activity). Assay Steps: Six uL of reagents were dispensed to 1536-well Greiner black clear bottom plates. Compounds and controls (23 nL) were transferred via Kalypsys PinTool. The plates were incubated for 15 min at room temperature, and then 2 uL of 800 uM solution of nitrocefin was added to start the reaction. The plates were immediately transferred to and read every 20 seconds for 4 min on ViewLux (Perkin-Elmer) High-throughput CCD imager using 480 nm absorbance protocol. During dispense, reagent bottles were kept submerged into 4 deg C water bath. Keywords: NIH Roadmap, MLSCN, MLI, MLSMR, qHTS, NCGC, AmpC Beta-Lactamase, Aggregation
Potency is read from the fitted curve at half-maximal effect; tags tell the direction and shape of the fitted curve.

Sequence of UniProt P00811 (P00811 whole entry, looked up): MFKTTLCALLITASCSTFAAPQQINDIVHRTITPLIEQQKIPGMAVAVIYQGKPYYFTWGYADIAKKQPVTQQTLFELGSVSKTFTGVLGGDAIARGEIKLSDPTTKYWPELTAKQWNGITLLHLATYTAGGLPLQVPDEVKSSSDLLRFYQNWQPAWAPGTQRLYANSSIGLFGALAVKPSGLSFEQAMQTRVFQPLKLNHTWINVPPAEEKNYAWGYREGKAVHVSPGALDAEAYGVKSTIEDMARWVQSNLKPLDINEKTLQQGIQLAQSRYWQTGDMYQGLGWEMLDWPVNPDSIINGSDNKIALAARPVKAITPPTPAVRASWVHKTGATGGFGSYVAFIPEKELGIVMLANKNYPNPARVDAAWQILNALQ

| SMILES | Potency | activity change, negative = inhibition |
| --- | --- | --- |
| Cc1nnc(SCC(=O)NCc2ccco2)n1-c1ccccc1 | inconclusive [inhibitor, full curve, poor fit] | – |
| COc1cc(NC(=O)c2cccc(C)c2)c(Cl)cc1[N+](=O)[O-] | inconclusive [inhibitor, single point] | – |
| Cc1cccc(CCNC(=O)c2cccc(NC3=NC4CS(=O)(=O)CC4S3)c2)c1 (configuration not stated) | inconclusive [inhibitor, full curve, poor fit] | – |
| CCOc1ccc(NC(=O)CN(C)C(=O)/C=C/c2ccc(S(=O)(=O)N3CCCCCC3)cc2)cc1OCC | inconclusive [inhibitor, partial curve, poor fit] | – |
| CC(CCc1ccccc1)NC(=O)CSc1n[nH]c(-c2ccccc2)n1 (configuration not stated) | – | inactive: 15% |
| CC1(c2ccc(O)cc2)NC(=O)N(c2ccccc2)N1 (configuration not stated) | inconclusive [inhibitor, full curve] | – |
| COC1CCCN(Cc2nc(Cc3ccccc3F)no2)C1 (configuration not stated) | – | inactive: 4.08% |
| O=C1C2ON(c3ccccc3)C(c3cccnc3)C2C(=O)N1Cc1ccccc1 (configuration not stated) | inconclusive [inhibitor, full curve, poor fit] | – |
| Cc1ccc2nc(Cl)c(C3CC(c4ccco4)=NN3S(C)(=O)=O)cc2c1 (configuration not stated) | – | inactive: -0.476% |
| CCN(Cc1ccccc1)C(=O)Cn1c(=O)n(CC(=O)N2CCCCC2)c(=O)c2sccc21 | inconclusive [inhibitor, partial curve, poor fit] | – |
| COc1ccc(C(=O)NCC(c2cccnc2)N2CCN(c3ccccc3)CC2)cc1OC (configuration not stated) | inconclusive [inhibitor, full curve, poor fit] | – |
| COC(=O)C(NC(=O)CCc1nnc2ccc(N3CCCCC3)nn12)C(C)C (configuration not stated) | inconclusive [inhibitor, full curve, poor fit] | – |
| CCc1cc(=O)oc2c3c(cc(OCC(=O)NCc4ccco4)c12)OC(C)(C)CC3 | inconclusive [inhibitor, single point] | – |
| CN1CCc2c(sc(N)c2C(=O)c2ccc(Cl)cc2)C1 | – | inactive: -6.07% |
| Cc1c(C(=O)N2CCN(c3ccc(C(F)(F)F)cn3)CC2)oc2ccccc12 | inconclusive [inhibitor, full curve, poor fit] | – |
| CC(=O)c1ccc(NC(=O)CN2CCN(c3ccccc3)CC2)cc1 | inconclusive [inhibitor, partial curve, poor fit] | – |
| CC1=C(C(=O)NCc2ccccn2)C2(CCC(C)CC2)OC1=O (configuration not stated) | inconclusive [inhibitor, full curve, poor fit] | – |
| COc1cc(CNCCN2CCOCC2)ccc1OCc1ccc(Cl)cc1 | – | inactive: 0.299% |
| CN1CCN(c2ccc(NC(=O)c3ccc(-c4ccccc4F)o3)cc2)CC1 | inconclusive [inhibitor, full curve, poor fit] | – |
| Cc1nccc2[nH]c(=O)c(C(=O)NC3CCCCC3C)cc12 (configuration not stated) | inconclusive [inhibitor, single point] | – |
| CC(=O)NC(Cc1cnc[nH]1)C(=O)O (configuration not stated) | inconclusive [inhibitor, full curve, poor fit] | – |

| SMILES | Potency | activity change, negative = inhibition |
| --- | --- | --- |
| CC1CCCN(Cc2nc3c(c(=O)n(C)c(=O)n3C)n2CC(=O)c2ccccc2)C1 (configuration not stated) | inconclusive [inhibitor, full curve, poor fit] | – |
| C[C@H](NC(=O)N1CCn2c1nc1ccccc12)C(=O)N1CCCCC1 | inconclusive [inhibitor, partial curve, poor fit] | – |
| CN1CCc2c(OCC(=O)NC3CCCCC3)cccc2C1=O | – | inactive: -8.56% |
| Cc1cccc(CSc2cn(CC(=O)N3CCOCC3)c3ccccc23)c1 | inactive | – |
| CC1(C)CC(=O)C2=C(C1)O[C@@]1(c3ccsc3)Cc3cc(C#N)ccc3C2O1 | inconclusive [inhibitor, full curve] | – |
| COc1ccc(S(=O)(=O)N2CCC(c3nc4ccccc4s3)CC2)cc1OC | – | inactive: 19.7% |
| Cc1ccc(N=c2oc3cc(O)ccc3cc2C(N)=O)cc1 | – | inactive: 1.47% |
| CSc1nnc(-c2ccccc2SC)o1 | inconclusive [inhibitor, partial curve] | – |
| COc1ccccc1Oc1cc(C#N)c(C#N)cc1-n1nnc2ccccc21 | inconclusive [inhibitor, single point] | – |
| Cc1ccc(CNC(=O)C2CCCN(S(C)(=O)=O)C2)cc1 (configuration not stated) | inconclusive [inhibitor, full curve, poor fit] | – |
| COCCCNC(=O)/C=C/c1ccc(Cl)cc1Cl | – | inactive: -1.13% |
| CSCc1ccc(C(=O)NCC(c2cccs2)N2CCOCC2)cc1 (configuration not stated) | inconclusive [inhibitor, partial curve] | – |
| CCOC(=O)c1c(-c2ccccc2)csc1NC(=O)CCN1CCOCC1 | inconclusive [inhibitor, partial curve, poor fit] | – |
| COc1ccc(COC(=O)C2CCN(S(=O)(=O)c3ccc(OC)c(OC)c3)CC2)cc1 | inconclusive [inhibitor, full curve] | – |
| O=C(Nc1ccccc1)NC1(C(=O)N2CCN(c3ncccn3)CC2)CCCCC1 | inconclusive [inhibitor, partial curve, poor fit] | – |
| CC(C)S(=O)(=O)c1csc(C(=O)NNC(=O)Nc2ccccc2)c1Cl | inconclusive [inhibitor, full curve, poor fit] | – |
| CN1CCN(c2ccc(NC(=O)c3cccc(OCc4ccccc4)c3)cc2)CC1 | – | inactive: 3.2% |
| Cc1oc2cc(Br)c(O)c(Br)c2c1C(=O)c1ccccc1 | inconclusive [inhibitor, full curve, poor fit] | – |
| N#Cc1c(N)nc2c(c1-c1ccc3c(c1)OCO3)CCCCCC2 | inconclusive [inhibitor, partial curve, poor fit] | – |
| COc1ccc(CCNCc2sccc2C)cc1 | inconclusive [inhibitor, full curve, poor fit] | – |
| COc1cc2c(cc1OC)C(c1ccccc1)NCC2 (configuration not stated) | inconclusive [inhibitor, full curve, poor fit] | – |

Reference: PubChem BioAssay AID485294 (National Center for Advancing Translational Sciences (NCATS), 2010)
